Data from PMC4336329 (PLoS ONE, 2015).
Hit rate of the full screen: of about 310,000 compounds, about 14,000 (4.5%) showed an effect of 50% or more. The effect is printed as a negative number. The list shows a part of the results.

Target: human ether-à-go-go-related gene (hERG) potassium channel (human, UniProt Q12809)
Assay: primary screen, population patch clamp on CHO cells stably expressing hERG
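Further: peak tail current of the secondary pulse compared with the same well before compound.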

Sequence of human ether-à-go-go-related gene (hERG) potassium channel (Q12809 whole entry, looked up): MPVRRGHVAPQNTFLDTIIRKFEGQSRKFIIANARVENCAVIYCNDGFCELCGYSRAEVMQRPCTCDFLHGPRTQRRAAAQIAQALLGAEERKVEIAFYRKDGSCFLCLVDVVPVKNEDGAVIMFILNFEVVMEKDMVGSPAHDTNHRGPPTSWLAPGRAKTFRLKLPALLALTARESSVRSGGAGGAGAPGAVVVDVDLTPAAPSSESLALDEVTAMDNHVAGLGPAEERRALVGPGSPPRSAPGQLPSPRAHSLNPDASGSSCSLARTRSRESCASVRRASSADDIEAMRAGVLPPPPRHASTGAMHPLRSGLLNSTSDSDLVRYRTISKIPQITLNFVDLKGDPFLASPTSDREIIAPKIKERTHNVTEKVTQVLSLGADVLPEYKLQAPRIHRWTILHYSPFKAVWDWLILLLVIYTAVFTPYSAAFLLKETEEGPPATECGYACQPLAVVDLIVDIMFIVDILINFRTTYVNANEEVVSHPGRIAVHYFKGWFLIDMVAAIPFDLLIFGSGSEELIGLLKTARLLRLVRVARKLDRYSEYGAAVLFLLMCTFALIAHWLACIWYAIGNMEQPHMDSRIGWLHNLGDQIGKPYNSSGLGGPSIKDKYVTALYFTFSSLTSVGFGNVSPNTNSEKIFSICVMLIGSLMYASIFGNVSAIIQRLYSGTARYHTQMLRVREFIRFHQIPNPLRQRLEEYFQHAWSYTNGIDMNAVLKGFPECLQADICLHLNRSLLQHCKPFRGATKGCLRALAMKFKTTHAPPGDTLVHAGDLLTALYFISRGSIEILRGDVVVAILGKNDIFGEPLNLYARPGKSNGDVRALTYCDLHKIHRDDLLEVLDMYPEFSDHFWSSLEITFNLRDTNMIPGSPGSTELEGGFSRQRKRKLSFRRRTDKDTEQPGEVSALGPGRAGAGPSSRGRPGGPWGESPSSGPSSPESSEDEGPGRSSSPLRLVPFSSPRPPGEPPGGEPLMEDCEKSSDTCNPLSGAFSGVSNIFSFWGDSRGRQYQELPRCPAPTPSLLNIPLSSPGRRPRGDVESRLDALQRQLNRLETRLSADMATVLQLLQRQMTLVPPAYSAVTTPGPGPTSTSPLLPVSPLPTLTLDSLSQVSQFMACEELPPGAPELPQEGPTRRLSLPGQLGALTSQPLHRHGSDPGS

Structure (SMILES) | hERG current change (%, negative = inhibition) at 10uM
COCCn1c(-c2ccc(F)cc2)nc2cccnc21 | 12.1%
O=C(Nc1ccc(Br)cc1)c1ccc(N2C(=O)C3CC=CCC3C2=O)cc1 (stereo not drawn) | 7.76%
C/C(=N\NC(=O)C1(C)CC1(Br)Br)c1cccc(NC(=O)C2CCC2)c1 (stereo not drawn) | -24.6%
N/N=C1\CCCc2c1[nH]c1ccc([N+](=O)[O-])cc21 | -5.46%
CCc1ccc(C(=O)COC(=O)c2cnccn2)cc1 | 0.242%
O=C(NNC(=O)c1cccs1)c1ccco1 | 12.4%
CN(C(=O)c1ccc(C#N)cc1)c1nnc(-c2cnccn2)s1 | -8.93%
CCC(=O)OC1(Cc2ccc(CC)cc2)CC(C)N(C)CC1C.Cl (stereo not drawn) | -59.4%
CC1(C)OC(=O)N(c2ccccc2)C12C=Cc1cc(Br)ccc1O2 (stereo not drawn) | -14.4%
Cc1ccc(Oc2ncccc2NC(=O)CC2(CC(=O)O)CCCC2)c2c1CCC2 | -10.8%
COc1ccc(OC)c(NC(=O)c2cc(S(=O)(=O)N3CCCCC3)c[nH]2)c1 | 14.6%
Cc1cc(Cl)ccc1Oc1nc(-c2ccc(F)cc2)ccc1C#N | -27.7%
COc1ccc(NC(=O)CCCn2c(=O)oc3ccccc32)cc1Cl | -12.9%
O=C(CCn1c(=O)oc2ccccc21)Nc1ccc(C(=O)O)cc1 | -45%
Cc1nc2sc(C(c3cccs3)N3CCN(Cc4ccccc4)CC3)c(O)n2n1 (stereo not drawn) | -81.2%
CCCNc1nc(N2CCCC2)nc(N2CCCC2)n1 | -28.9%
O=C(O)C1=NOC(CNc2ncc(C(F)(F)F)cc2Cl)C1 (stereo not drawn) | 20.8%
CC(=O)Nc1ccccc1C(=O)C(=O)Nc1cccc(C(=O)NCc2ccccc2)c1 | -32.6%
O=C(O)c1cccnc1SCc1ccccc1Cl | 1.93%
CCOC(=O)c1c(C)[nH]c(C(=O)OCC(=O)N(CC(C)C)c2c(N)n(Cc3ccccc3)c(=O)[nH]c2=O)c1C | -17.9%
COc1ccc(C2C(C#N)=C(SC)NC3=C2C(=O)CC(C)(C)C3)cc1 (stereo not drawn) | -15.4%
O=C(CCN1C(=O)/C(=C/c2ccccc2Cl)SC1=S)NNC(=O)c1ccccc1O | -6.37%
CCN(CC)CCCNC(=S)N(Cc1cccnc1)Cc1cc2cc(C)ccc2[nH]c1=O | -5.72%

Structure (SMILES) | hERG current change (%, negative = inhibition) at 10uM
CN(Cc1cccc(Cl)c1Cl)c1ccc(S(=O)(=O)N2CCCCC2)cc1[N+](=O)[O-] | 5.82%
CCCOC(=O)c1c(NC(=O)C2C3C=CC(C3)C2C(=O)O)sc2c1CCC(C)C2 (stereo not drawn) | -59.3%
CCn1c(O)c(C(C#N)=C2N=c3ccccc3=N2)c2ccccc21 | -6.56%
CN(C(=O)COC(=O)COc1ccccc1Cc1ccccc1)c1ccccc1 | -12%
COc1ccc(S(=O)(=O)N2CC(C)OC(C)C2)cc1C(=O)N1CCCCC1 (stereo not drawn) | 6.93%
CCOc1ccc(NC(=O)CN(C)C(=O)CC2CCCCC2)cc1OCC | -19.8%
CC(Oc1ccccc1)c1nnc(N)s1 (stereo not drawn) | -1.12%
Cc1ccc(S(=O)Cc2ccc(C(=O)N3CCN(C(=O)c4ccco4)CC3)o2)cc1 (stereo not drawn) | -1.46%
COc1ccc(C(=O)N2c3ccc(F)cc3CCC2C)cc1OC (stereo not drawn) | 0.433%
CC(NC(=O)CN1CCN(c2ccc(Cl)cc2)CC1)c1ccccc1 (stereo not drawn) | -42.7%
COC(=O)C1CCN(C(=O)COC(=O)c2n[nH]c3ccccc23)CC1 | 10.8%
O=C(CCN1C(=O)c2ccccc2S1(=O)=O)Nc1ccc(F)cc1F | 1.36%
CCCCCOc1ccc(Cn2ccnc2)cc1[N+](=O)[O-].Cl | -45.4%
CC1CCN(c2nc3ccc(C(=O)NCCCN4CCCCC4)cc3s2)CC1 | -50%
Cc1ccc(C(=O)Nc2ccc(C(=O)N/N=C/c3ccncc3)cc2)cc1 | 18.5%
O=S(=O)(NC1CC2CCC1C2)c1ccc(Br)cc1 (stereo not drawn) | -4.98%
CCOc1ccc(NC(=O)NCCCn2c(C)nc3cc(C)c(C)cc32)cc1 | -55.5%
CSCCC(NS(=O)(=O)c1ccc2c(c1)OCCO2)C(=O)N(C)Cc1ccc(C)cc1 (stereo not drawn) | -3.42%
Cc1ccc(CNc2ncnc(N)c2[N+](=O)[O-])cc1 | 4.56%
O=C(NNC(=S)Nc1ccc(F)cc1)C1CC1c1ccc(Cl)cc1 (stereo not drawn) | -33.2%
CCCC(=O)OCC(=O)c1[nH]c(C)c(C(C)=O)c1C | 11.4%
O=C1CCCc2c1nc(-c1ccco1)n2O | 12.1%
